± gives the standard deviation of the averaged measurements. The list shows a part of the results.

The experiment concerns PfAP2-EXP AP2 domain (GST-tagged). The experiment in a line: gcPBM binding intensity (ln(normalized median fluorescence intensity)); higher = stronger DNA binding. The gist of the method: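 After 1 h on an Agilent 4 × 180k array of primer-extended double-stranded 36-bp intergenic genomic probes and negative controls, bound GST-tagged P. falciparum DNA-binding domains were detected with Alexa488 anti-GST antibody and scanned at 488 nm. The domains had been expressed in E. coli, and binding took place in 1× PBS with 1% milk, 0.2 mg/ml BSA, 0.5% salmon testes DNA and 0.03% Triton X-100. Binding intensity is the highest Masliner-normalised natural-log median intensity across replicate spots of either probe orientation.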
On to “TTGAACCTGATAAATACACACAATATATATTTTTTT [CACACA_site2173]”, for which the “gcPBM binding intensity (ln)” value is 8.2 ± 0.47.

On to “GTGATAAATATTATATGTACATATAATATTTATGTC [XGTACX_site8023]”, for which the “gcPBM binding intensity (ln)” value stood at 8.62 ± 0.28. For “CCATTCTTACTTTATTGTACTTGAAAATTTTTTTTA [XGTACX_site6160]” the value was 8.85 ± 0.4. For “TCAAAAACGAGACATGCATGCAATTCATTTTGATTC [TGCATGCA_site212]” the value was 9.94 ± 0.38; for “TTTTTGTGCATTGATTGTACTTTCTAGGATTATTAA [XGTACX_site7070]”, 8.92 ± 0.042. For “TTTATCCAATAATCTGGTACACAATAATCATTCATG [XGTACX_site6192]” the value was 8.38 ± 0.36; for “TTTCTATTTATTTCAAGTACTAAAAATATATATAAC [XGTACX_site8203]”, 8.46 ± 0.38.

On to “ATTCATATATACTTCACACACATTTTATCATTCAAA [CACACA_site2468]”, for which the “gcPBM binding intensity (ln)” value stood at 8.93 ± 0.33. “TTTTTTTACTTAATAGTTCAACATATATCTCAATGT [CACACA_negctrl_site620]”: the “gcPBM binding intensity (ln)” value was 8.49 ± 0.38. For “GAAAACGTCTTTAATAGTACACAGTTAAAAAATACA [XGTACX_site8976]” the value was 8.48 ± 0.38; for “GAAATTATGTAAAAAAGTACTAACATACATATATAT [XGTACX_site1794]”, 8.61 ± 0.32. For “TATATATATATATAAAGTACATATAATATATATTTG [XGTACX_site5412]” the value was 9.97 ± 0.45; for TTTTTTTTTTTGATGGTGCAATATATTAAATAGAAA, 8.86 ± 0.28. For “TTTTTTCATTATATATAGTATGCAAGTCAAATTAAT [GTGCAC_negctrl_site207]” the value was 8.32 ± 0.44; for “CTATAAAAATATAATTGTACAAATTTTTATATCTTA [XGTACX_site7722]”, 8.18 ± 0.35. Consider “ACAAAATTTACAAAATGTACAAAATTTACAAAATAT [XGTACX_site3542]”, for which the “gcPBM binding intensity (ln)” value was 8.47 ± 0.35. For “AAAAAAAAAAAAAACATACACACATTGAACTTTTAT [CACACA_site3251]” the value was 8.4 ± 0.38.

As for “TATACCTATAGACACACACACATATAGATTTATATA [CACACA_site7124]”, the “gcPBM binding intensity (ln)” value is 8.45 ± 0.45.

For “CGCATACACAGACACACACACACATATAAATATGTA [CACACA_site6444]”, the “gcPBM binding intensity (ln)” value was determined as 8.54 ± 0.28.

Turning to “AATTTTTTATTAAACACACAAACATATATATATATA [CACACA_site1937]”, the “gcPBM binding intensity (ln)” value was 9.94 ± 0.35. As for “GTTCATACTTAATATTGTACTTTTCATGTAGTGTAT [XGTACX_site6613]”, the “gcPBM binding intensity (ln)” value was 8.87 ± 0.51. For “TACAAATATATATGCACACACATATACATACATATA [CACACA_site2182]” the value was 8.57 ± 0.23; for “TATTAGATATAATATATACACACCAACGAACGAAGA [CACACA_site1134]”, 9.06 ± 0.56. For “TAACATATTTTTAATACACACTCAAAAAAGTACTTA [CACACA_site5638]” the value was 8.31 ± 0.37.

Take “AAATAAATATTTATATGTACATATATTTTATAATAC [XGTACX_site7041]”: the “gcPBM binding intensity (ln)” value was determined as 8.54 ± 0.28. As for TTCATTCAAATTAACGTGCACATTATTAGTAAAAAC, the “gcPBM binding intensity (ln)” value was 9.13 ± 0.099. For TTATATAATTTAATAGTGCAATTATATTAATTTTTC the value was 8.21 ± 0.16; for “TAGATATATAATTTGCGTACACAAATAATATATTTT [XGTACX_site6397]”, 8.51 ± 0.19. For “TAGTTTTCTTAAAGATGTACATTTTAAAAATAATCT [XGTACX_site255]” the value was 8.28 ± 0.36. For “ATATATATATGTTACTGTACTAATTTATATGTTAAT [XGTACX_site3341]” the value was 9.665 ± 0.064; for “AATACAAATATATACACACATACATACATACATATA [CACACA_site3147]”, 8.48 ± 0.35; for “TTATGGTTTAAATAAAGTACAAATAAATAAATATAT [XGTACX_site5777]”, 8.62 ± 0.37.

Take “ATACACATATGTTAATGTACACATATATAATATTTA [XGTACX_site163]”: the “gcPBM binding intensity (ln)” value came to 8.64 ± 0.33. For “CACAAAAATAGACACACACACATATAGATTTATTAT [CACACA_site7676]” the value was 8.56 ± 0.48. For “TTTCTTAAATATATTGAGGAATAAAAAGAAGAAAAG [GTGCAC_negctrl_site281]” the value was 8.69 ± 0.59. For “TTATGAAAAATAAAATTAGAAAAAAAGGAAAATGAA [XGTACX_negctrl_site232]” the value was 8.81 ± 0.47; for “AGGTTACATAGATTTTGTACATATATATTATTTTTT [XGTACX_site3040]”, 8.44 ± 0.38; for “AAAAAATTATAAAAGTGTACATATATATATATATAT [XGTACX_site154]”, 10 ± 0.38. Consider “CATATTTCTTTATTGGCACACATTTTTTCAATTATA [CACACA_site1618]”, for which the “gcPBM binding intensity (ln)” value is 8.86 ± 0.32.

Regarding “TTGAAAATACAAAATTGTACAAAGATTTAAATAAAA [XGTACX_site1182]”, the “gcPBM binding intensity (ln)” value was 8.71 ± 0.45.

As for “TGAAATAAATAATGCACACTCTACAGATATACGTAT [CACACA_site5270]”, the “gcPBM binding intensity (ln)” value worked out at 8.6 ± 0.34. For “AAAAAAAAAAAAAACACACACAAATTTAATCTATAT [CACACA_site6894]” the value was 8.4 ± 0.42; for “TGTTATTACTTTATATCATCTTAAAATAAGCATATT [CACACA_negctrl_site1501]”, 8.29 ± 0.42. “TTTATTTATTACAATTTTTGAATCACCACACAGTCG [GTGCAC_negctrl_site413]”: the “gcPBM binding intensity (ln)” value is 8.31 ± 0.49.
